# Laboratory results taken from the supplement of paper PMC3334620.
# In all, about 33,000 sequences were measured (“E-score (-0.5 to 0.5)”: median about -0.011, highest 2% from about 0.28 on). This is one part of the list.
# Biological target: T1, Gcr1 (UniProt P07261)
# T1 sequence: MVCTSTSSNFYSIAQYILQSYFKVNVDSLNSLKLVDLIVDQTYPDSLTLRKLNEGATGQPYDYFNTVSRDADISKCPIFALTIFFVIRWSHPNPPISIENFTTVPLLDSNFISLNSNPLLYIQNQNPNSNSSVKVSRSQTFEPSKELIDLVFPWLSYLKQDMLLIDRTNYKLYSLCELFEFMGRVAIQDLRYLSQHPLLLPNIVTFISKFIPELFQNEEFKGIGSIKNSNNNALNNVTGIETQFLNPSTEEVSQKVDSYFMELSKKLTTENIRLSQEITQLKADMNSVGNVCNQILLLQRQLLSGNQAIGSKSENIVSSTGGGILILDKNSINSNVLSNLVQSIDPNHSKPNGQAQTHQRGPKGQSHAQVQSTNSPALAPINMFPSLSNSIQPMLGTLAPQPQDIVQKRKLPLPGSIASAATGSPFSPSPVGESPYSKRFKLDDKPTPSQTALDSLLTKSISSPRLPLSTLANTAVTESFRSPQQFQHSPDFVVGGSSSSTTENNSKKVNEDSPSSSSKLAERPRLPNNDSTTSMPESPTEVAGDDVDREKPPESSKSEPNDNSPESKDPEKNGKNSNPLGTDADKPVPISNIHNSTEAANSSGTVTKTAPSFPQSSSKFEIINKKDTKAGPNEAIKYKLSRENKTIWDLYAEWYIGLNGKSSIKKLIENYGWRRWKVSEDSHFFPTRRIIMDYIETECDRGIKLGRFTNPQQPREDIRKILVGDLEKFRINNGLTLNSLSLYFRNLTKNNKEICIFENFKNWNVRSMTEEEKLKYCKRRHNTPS
# Assay: PBM E-score (8-mer binding enrichment) (E-score (-0.5 to 0.5)); higher = stronger / more preferred TF binding; most listed sequences are background and not binding sites
# Details: protein concentration: 100 nM; construct: GST-full length
# Method in brief: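 GST-tagged yeast TFs (full-length or DNA-binding domain) were made by PURExpress in vitro transcription/translation and applied at about 100-200 nM to universal all-10-mer Agilent arrays. The arrays were made double-stranded by primer extension, on fresh or once-stripped slides. Bound protein was detected with fluorescent anti-GST, and scans were normalised with masliner. Each ungapped eight-base word, pooled with its reverse complement, received an E-score (modified Wilcoxon-Mann-Whitney statistic) from the Universal PBM Analysis Suite.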
row,Sequence,PBM E-score
1,ATAATCCG,-0.079
2,GCAGCAGA,-0.135
3,ATCTGTGG,0.0552
4,GCGTTACA,-0.105
5,CCTTTCAC,-0.0596
6,ATTGGCCG,-0.0518
7,AGCGTGAT,-0.149
8,GTACGTCA,-0.127
9,TACAGGAA,0.394
10,CTACCTTA,0.197
11,ATGATTCG,0.0357
12,GAGTTCTA,0.0617
13,GCGTTTCC,-0.185
14,AGTCGTAG,-0.0469
15,GCATATTA,-0.0298
16,CCTTGGCC,-0.327
17,CAACGCTC,-0.313
18,CAGAGGAG,-0.123
19,ATTTGCAG,-0.0239
20,GCGTTCCA,0.112
21,CCGCCCAA,-0.0971
22,AGGCGAAG,0.0258

row,Sequence,PBM E-score
1,CAGACGCC,0.329
2,CAGCATAA,-0.0294
3,CCTAAATC,0.306
4,CATAAAAA,0.137
5,GGATTCAA,-0.128
6,AAACATCG,-0.0599
7,CTTGTTGA,-0.138
8,AATTCTAA,0.17
9,TGGGGAAA,0.0107
10,CGGTCCTA,-0.11
11,ACATTGCT,0.0699
12,GACGTTCC,0.0203
13,GAATACTA,0.0997
14,ATAGGTTA,0.203
15,AGTAGACT,-0.048
16,AACACCTT,-0.0171
17,GACGAGGC,-0.246
18,TCTTCCAA,-0.0111
19,TAGCCACA,0.032
20,ACATTCTC,-0.175
21,ACCCAGAC,0.0501
22,ACACCGCG,-0.19

row,Sequence,PBM E-score
1,GAACCGGC,-0.0192
2,CCTTATCA,0.0532
3,CCTGTGAG,-0.218
4,CTAGGTTC,0.193
5,GGTACACA,-0.189
6,CACAGATG,-0.188
7,CAGGAGAA,-0.117
8,AATCCGTG,-0.064
9,CGTGCGGA,-0.122
10,CATTGTGC,-0.141
11,TACTAACA,0.0643
12,CGGCGGCC,0.246
13,CAAAGTTC,-0.117
14,CTTATTAA,0.149
15,AGTATTCG,0.175
16,CAGGGCAG,-0.263
17,AATCGGCT,0.169
18,GCCCATCC,-0.141
19,ACAAGGCA,-0.21
20,CAGCCACG,0.12
21,GTACACAC,-0.105
22,AGTCTCAA,-0.0832

row,Sequence,PBM E-score
1,GAGTGGCA,-0.0587
2,ACTACCTG,0.0272
3,CCTGAGCA,0.0217
4,ACTACCAC,0.101
5,AATCCGTC,-0.0275
6,GAACGGGA,0.00857
7,ACCCAAGC,-0.289
8,CGAAGAAG,-0.0934
9,AGAAATCC,-0.0373
10,AGGGATTA,-0.15
11,AAACTCTT,-0.106
12,CTAGTGCC,-0.0209
13,GACAAGGA,-0.0541
14,CCTTGGAA,0.0283
15,GTGGCGGA,0.0346
16,AGGATACA,0.0888
17,AGTGGTAA,-0.099
18,CGTCCATC,0.0501
19,CGAAGATC,-0.1
20,CGTCGAAG,-0.144
21,ACCTGTCG,-0.319
22,GGCGTAAA,0.101

row,Sequence,PBM E-score
1,ACCGTCGA,-0.249
2,ATTGAGAA,0.128
3,AAAAGGCT,-0.0808
4,CCGACATA,0.0516
5,ACTAGGTA,-0.0397
6,TGGGCCCA,0.125
7,TAACCAAA,-0.0086
8,CTTGATGA,0.13
9,CTAAATAC,0.227
10,TGACTAAA,-0.0574
11,CTCAGGAC,0.182
12,CACAAACC,0.00896
13,ATGCACGA,-0.189
14,AACTACAT,-0.0174
15,CCTCCAGG,-0.15
16,ACTTCTAT,0.0182
17,ACGAACAG,-0.0794
18,CGCCGATC,0.111
19,TGGGACAA,-0.108
20,GCCAAAAA,0.288
21,ATAAACAC,0.0109
